Test results reported in PubChem BioAssay AID588855 (National Center for Advancing Translational Sciences (NCATS), 2011).
Among all 410,000 compounds or so, about 5,000 (1.2%) were called active. Inconclusive means that the source gave no clear call. Such entries were picked first, then a sample of the others. Calls follow the shape of the dose curve; as a rule, active = well fitted inhibition curve with a large enough effect; inconclusive = small, poorly fitted or top-dose-only effect; inactive = no such curve, though single readings can be large or run the other way. Where the call is inconclusive, the potency comes from a doubtful curve fit.

Assay: qHTS for Inhibitors of TGF-b; also: nearly all actives have a fitted effect of over 65% in size
Conditions: HepG2 CAGA-GFP TGF-b/SMAD3 reporter, GFP fluorescence, 18 h, TGF-beta stimulated, 500 pg/mL final; series mostly up to 46.1 µM
Method in brief: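 Smad-responsive CAGA-GFP expression was quantified in HEPG2 cells exposed to compounds and 500 pg/mL final TGF-beta for 18 h at 37 degrees C; unstimulated wells defined full inhibition.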
Potency is read from the fitted curve at half-maximal effect; tags tell the direction and shape of the fitted curve.

SMILES | Potency
Cn1c(=O)c(=O)n(C)c2cc(S(=O)(=O)N3CCOc4ccccc43)ccc21 | inactive
Cn1nc(C(F)(F)F)c2cc(C(=O)Nc3ccc(F)cc3)sc21 | inactive
Cc1ccccc1Oc1nc(-c2ccccn2)nc2ccccc12 | inconclusive: 14.1 µM [inhibitor, partial curve, poor fit]
NNC(=O)c1nc(-c2cccc(-n3cccc3)c2)no1 | inconclusive: 3.98 µM [inhibitor, single point]
CCOC(=O)CSc1ccc(-c2nc3cc(C)c(C)cc3[nH]2)cn1 | inconclusive: 17.8 µM [inhibitor, partial curve, poor fit]
Cc1cccc(-c2nc3scc(CCNS(=O)(=O)c4ccc5c(c4)OCCO5)n3n2)c1 | inconclusive: 35.5 µM [inhibitor, single point]
Cc1ccc(S(=O)(=O)Nc2ccc(SC(F)F)cc2)c(C)c1 | active: 12.6 µM
COc1cc(C)c(C(=O)Oc2cc(C)c(C(=O)O)c(O)c2C)c(O)c1C | inconclusive: 25.1 µM [inhibitor, single point]
O=C1Nc2ccccc2C1Cc1ccc(OC(F)(F)F)cc1 (configuration not stated) | inconclusive: 25.1 µM [inhibitor, partial curve, poor fit]
O=C(Nc1cc(Cl)ccc1Cl)c1cc([N+](=O)[O-])cc(Br)c1O | inconclusive: 14.1 µM [inhibitor, partial curve, poor fit]
O=C(N/N=C/C=C/c1ccco1)c1cccs1 | inconclusive: 35.5 µM [inhibitor, single point]
COc1ccc(-c2csc(=Nc3ccccc3)n2CCO)cc1F | inconclusive: 0.891 µM [inhibitor, full curve, poor fit]
CC1CCCN(c2nc3ccccc3nc2C(C#N)S(=O)(=O)c2cccs2)C1 (configuration not stated) | inconclusive: 2.82 µM [inhibitor, full curve]
Cc1cccc(CN(CC(=O)N/N=C/c2ccco2)S(=O)(=O)c2ccc(Cl)cc2)c1 | inconclusive: 20 µM [inhibitor, single point]
CCCn1c(SCC(=O)Nc2cccc(C)n2)nc2c1c(=O)n(C)c(=O)n2C | inconclusive: 2.82 µM [inhibitor, partial curve]
Cc1ccc(CN2C(=O)[C@@H]3Cc4c([nH]c5ccccc45)C(C)(C)N3C2=O)cc1 | inconclusive: 35.5 µM [inhibitor, single point]
CCOC(=O)c1c(Nc2ccc(OC)cc2)nnc(-c2ccccc2)c1-c1ccccc1 | inconclusive: 17.8 µM [inhibitor, single point]
CC1CCC2C(=O)N(c3ccc(Cc4ccncc4)cc3)C(=O)C2C1 (configuration not stated) | inconclusive: 8.91 µM [inhibitor, partial curve, poor fit]
CCOCCCn1cc(C(=O)c2cc(Br)ccc2O)cc(C#N)c1=O | inconclusive: 35.5 µM [inhibitor, single point]
CN1CCN(c2ncc3c(n2)CCN(Cc2ccc(Br)s2)C3)CC1 | inactive
COc1ccc2nc(/C(C#N)=C\c3ccc(C(=O)O)cc3)[nH]c2c1 | inconclusive: 35.5 µM [inhibitor, single point]
Cn1nc(C(F)(F)F)c(-c2cccc(C(F)(F)F)c2)c1NC(=O)c1ccco1 | inactive
Cc1ccc(C)c(/C=N/n2cc(-c3ccccc3)[nH]c2=S)c1 | inconclusive: 7.08 µM [inhibitor, partial curve]

SMILES | Potency
Cn1c(O)c(N=NC(=O)c2cccc(S(=O)(=O)N3CCCCC3)c2)c2ccccc21 | inconclusive: 11.2 µM [inhibitor, single point]
O=C(CCn1cccn1)N1CCCC(N2CCN(c3cccc(C(F)(F)F)c3)CC2)C1 (configuration not stated) | inconclusive: 35.5 µM [inhibitor, single point]
NC(=O)C1=CC2C3C=CC2(O)C(=O)OC3O1 (configuration not stated) | active: 11.2 µM
COc1cccc(NC(=O)CN(C)CC(=O)Nc2ccc(C)c([N+](=O)[O-])c2)c1 | inactive
O=c1oc(-c2ccccc2Cl)nc2ccsc12 | inconclusive: 35.5 µM [inhibitor, single point]
COCCN(Cc1cc2cc(C)ccc2n2nnnc12)C(=S)Nc1ccc(C)cc1 | inactive
O=C(c1cccc(F)c1)N1CCN(c2ccc([N+](=O)[O-])c(N3CCOCC3)c2)CC1 | inconclusive: 6.31 µM [inhibitor, single point]
COc1cc2nc(SCc3ccc(Cl)cc3Cl)n(Cc3cccs3)c(=N)c2cc1OC | inactive
CN(C)c1oc(/C=C/c2cccs2)nc1S(=O)(=O)c1ccccc1 | inconclusive: 35.5 µM [inhibitor, single point]
CCC1=C2CC[C@H]3C(=O)N(c4ccccc4)C(=O)[C@H]3[C@H]2[C@@]2(C)C(=NCC3CC3)OC(=O)N2C1=O | inconclusive: 5.01 µM [inhibitor, partial curve]
CCc1ccc(-c2nn(-c3ccccc3)cc2CSC(=N)N)cc1 | inconclusive: 20 µM [inhibitor, single point]
Fc1ccc(NC(=S)NCCc2ccccc2)c(F)c1F | inconclusive: 17.8 µM [inhibitor, single point]
CN(CC(=O)Nc1ccc(Cl)c(C(F)(F)F)c1)C(=O)Cc1n[nH]c(=O)c2ccccc12 | inconclusive: 35.5 µM [inhibitor, single point]
CCc1ccc(C2C(C(=O)Nc3ccccc3C)=C(C)Nc3nc(SCc4cccc(OC)c4)nn32)cc1 (configuration not stated) | inactive
Cc1ccc(-c2ccc(/C=C3\C(=O)ON=C3c3ccccc3)o2)c([N+](=O)[O-])c1 | inactive
COc1cccc(N=Nc2ccc(O)c3ncccc23)c1 | inconclusive: 14.1 µM [inhibitor, partial curve, poor fit]
COc1cc(OC)c2c(-c3ccccc3)cc(=O)oc2c1C(CCN1CCCCC1)c1ccc2c(c1)OCO2 (configuration not stated) | inconclusive: 35.5 µM [inhibitor, single point]
CCCCCCCCCCOC(=O)Cn1c(COc2ccc(OC)cc2)[n+](C)c2ccccc21 | active: 10 µM
CCOC(=O)Nc1nc(-c2ccccc2)c(C(=O)c2ccccc2)s1 | inconclusive: 8.91 µM [inhibitor, partial curve, poor fit]
CC(=O)c1ccc2c(c1)c(C#N)c1ccccc1[n+]2[O-] | inactive
C/C(=N\N=C(/N)SC1CC(=O)N(c2ccc(Br)cc2)C1=O)c1cccs1 (configuration not stated) | inconclusive: 35.5 µM [inhibitor, single point]
Cc1nc(C)c(-c2csc(Nc3ccccn3)n2)s1 | inconclusive: 11.2 µM [inhibitor, partial curve, poor fit]
COc1ccc(N2CCN(C(=O)c3ccccc3NC(=O)c3ccccc3)CC2)cc1 | inconclusive: 0.562 µM [inhibitor, full curve, poor fit]

SMILES | Potency
COc1ccc(N2CC(C(=O)Nc3ccc(S(=O)(=O)N4CCCC4)cc3)CC2=O)cc1 (configuration not stated) | inconclusive: 15.8 µM [inhibitor, single point]
COc1cc(NC(=O)CCC2CCCC2)cc(-n2cnnn2)c1 | inactive
Clc1ccc(OCCCCCN2CCCC2)c(Br)c1 | inconclusive: 25.1 µM [inhibitor, single point]
CCCCNCCCOc1ccc(C)cc1Br | inactive
CCN(CC)c1ccc(-c2nnc(SCC(=O)NCc3ccco3)n2C)cc1 | inactive
CCCCN(CC)C(=O)C1CCCN(c2ncnc3onc(C)c23)C1 (configuration not stated) | inactive
COc1ccc(OC)c(NC(=O)CCC(=O)Nc2nnc(C(C)C)s2)c1 | inactive
Cc1ccc(Cl)cc1N1CCN(S(=O)(=O)c2ccc3c(c2)NC(=O)C(C)C(=O)N3)CC1 (configuration not stated) | inconclusive: 22.4 µM [inhibitor, single point]
COc1ccc(Cl)cc1NC(=O)c1c(NCc2cccnc2)sc2c1CCC(C)C2 (configuration not stated) | active: 8.91 µM
O=C(CCN1C(=O)c2cccc3cccc(c23)C1=O)NC1CCS(=O)(=O)C1 (configuration not stated) | inconclusive: 5.62 µM [inhibitor, single point]
Cc1ccccc1C(=O)O/N=C/c1c(N2CCOCC2)n(C)c2ccccc12 | inconclusive: 1.26 µM [inhibitor, partial curve]
CC(=O)c1cccc(-c2ccnc3c2CC(C(=O)Nc2ccc4c(c2)OCO4)O3)c1 (configuration not stated) | inactive
CC(=O)Nc1nnc(C2=COCCO2)o1 | inactive
CN(C)C(CNC(=O)CCc1nc2cc(Cl)ccc2n(Cc2ccccc2)c1=O)c1ccccc1 (configuration not stated) | inconclusive: 12.6 µM [inhibitor, partial curve, poor fit]
COc1ccc(NC(=O)c2cc(-c3ccc(C)c(C)c3O)n[nH]2)cc1Cl | inconclusive: 15.8 µM [inhibitor, single point]
CCCOc1ccc(CSc2nc3ccccc3[nH]2)cc1 | active: 10 µM
CCOC(=O)Cc1c(C)nc2c(-c3ccccc3)c[nH]n2c1=O | inactive
CCCOc1ccc(C2C(C(=O)c3ccc(C)o3)=C(O)C(=O)N2CCN2CCOCC2)cc1OC (configuration not stated) | inconclusive: 0.112 µM [inhibitor, full curve, poor fit]
Cc1ccc2c(c1)[C@H]1[C@H](CO2)[C@H](c2ccccc2)[C@]2(C)C(=O)N(Cc3ccccc3)CC(=O)N12 | inconclusive: 17.8 µM [inhibitor, single point]
Cc1ccccc1NC(=O)c1oc2c(c1C)-c1nn(Cc3cccc(Cl)c3)cc1CC2 | inconclusive: 0.1 µM [inhibitor, full curve, poor fit]
CCCC(=O)NC(=S)Nc1ccc(N2CCN(C(=O)c3cccs3)CC2)cc1 | inconclusive: 11.2 µM [inhibitor, partial curve]
